Data taken from patent US7592316B2, “Peptides as NS3-serine protease inhibitors of hepatitis C virus” (Schering Corporation, priority 2000, dated 2009).

molecular target: HCV NS3/NS4A protease (strain 1a) (Hepatitis C virus genotype 1a, UniProt P27958); assay: biochemical; details: Table 5; HCV NS3/NS4A protease, spectrophotometric assay, 30° C., pH 6.5; read-out: Ki* Range

| Compound | Ki [nM] |
| --- | --- |
| CCCC(NC(=O)[C@@H]1[C@@H]2[C@H](CN1C(=O)[C@@H](NS(C)(=O)=O)C(C)(C)C)C2(C)C)C(=O)C(N)=O (stereo partly drawn) | > 1000 |
| CCOC(=O)N[C@H](C(=O)N1C[C@H]2[C@@H]([C@H]1C(=O)NC(CC1CC1)C(=O)C(N)=O)C2(C)C)C1CCCCC1 (stereo partly drawn) | 101 to 1000 |
| COC(=O)N[C@H](C(=O)N1C[C@H]2[C@@H]([C@H]1C(=O)NC(CC1CC1)C(=O)C(N)=O)C2(C)C)C1CCCCC1 (stereo partly drawn) | 101 to 1000 |
| CCCC(NC(=O)[C@@H]1[C@@H]2[C@H](CN1C(=O)[C@@H](NC(=O)OC(C)C)C1Cc3ccccc3C1)C2(C)C)C(=O)C(N)=O (stereo partly drawn) | 101 to 1000 |
| CCCC(NC(=O)[C@@H]1[C@@H]2[C@H](CN1C(=O)[C@@H](NC(=O)NC1CC1)C(C)(C)C)C2(C)C)C(=O)C(N)=O (stereo partly drawn) | > 1000 |
| CCCC(NC(=O)[C@@H]1C2C(CN1C(=O)[C@@H](NC(=O)OCC(C)C)C1Cc3ccccc3C1)C2(C)C)C(=O)C(N)=O (stereo partly drawn) | 101 to 1000 |
| CCCC(NC(=O)[C@@H]1C2C(CN1C(=O)[C@@H](NC(=O)OC(C)CC)C1Cc3ccccc3C1)C2(C)C)C(=O)C(N)=O (stereo partly drawn) | 101 to 1000 |
| CC(C)[C@H](NC(=O)OC(C)(C)C)C(=O)N1C[C@H]2[C@@H](C1C(=O)NC1(C(=O)C(N)=O)CC1)C2(C)C (stereo partly drawn) | > 1000 |
| CCCC(NC(=O)C1C2CCC(C2)N1C(=O)[C@H](NC(=O)OC(C)(C)C)C(C)(C)C)C(=O)C(=O)NCC(=O)OCc1ccccc1 (stereo partly drawn) | > 1000 |
| CCCC(NC(=O)C1C2CCC(C2)N1C(=O)[C@@H](NC(=O)OC(C)(C)C)C(C)(C)C)C(=O)C(=O)NCC(=O)O (stereo partly drawn) | > 1000 |
| C=CCNC(=O)C(=O)[C@@H](CCC)NC(=O)C1C2CCC(C2)N1C(=O)[C@@H](NC(=O)OC(C)(C)C)C(C)(C)C (stereo partly drawn) | > 1000 |
| C=CCNC(=O)C(=O)[C@@H](CCC)NC(=O)[C@@H]1C2CCC(C2)N1C(=O)C(NC(=O)OC(C)(C)C)C(C)(C)C (stereo partly drawn) | > 1000 |
| C=CCNC(=O)C(=O)C(CCC)NC(=O)[C@@H]1C[C@@H](CCC(C)C)CN1C(=O)[C@@H](NC(=O)OC(C)(C)C)C(C)(C)C (stereo partly drawn) | > 1000 |
| C=CCNC(=O)C(=O)C(CCCC)NC(=O)[C@@H]1C[C@@H](CCC(C)C)CN1C(=O)[C@@H](NC(=O)OC(C)(C)C)C(C)(C)C (stereo partly drawn) | > 1000 |
| CC(C)CC(NC(=O)[C@@H]1CC(C)(C)CN1C(=O)[C@H](NC(=O)OC(C)(C)C)C(C)(C)C)C(=O)C(=O)NCC(=O)NCc1ccccc1 (stereo partly drawn) | > 1000 |
| CCCC(NC(=O)[C@@H]1CC(C)(C)CN1C(=O)[C@@H](NC(=O)OC(C)(C)C)C(C)(C)C)C(=O)C(=O)NCCc1ccccc1 (stereo partly drawn) | > 1000 |
| C=CCCC(NC(=O)[C@@H]1[C@@H]2[C@H](CN1C(=O)[C@@H](NC(=O)OC(C)(C)C)C(C)(C)C)C2(C)C)C(=O)C(=O)NCCC(=O)Nc1ccccc1 (stereo partly drawn) | 101 to 1000 |
| C=CCC(NC(=O)[C@@H]1[C@H]2[C@@H](CN1C(=O)[C@@H](NC(=O)OC(C)(C)C)C(C)(C)C)C2(C)C)C(=O)C(=O)NCC(=O)NC(c1ccccc1)c1ccccc1 (stereo partly drawn) | 101 to 1000 |
| C=CCC(NC(=O)[C@@H]1[C@H]2[C@@H](CN1C(=O)[C@@H](NC(=O)OC(C)(C)C)C(C)(C)C)C2(C)C)C(=O)C(=O)NCC(=O)NC(C)c1ccc(C)cc1 (stereo partly drawn) | 101 to 1000 |
| C=CCC(NC(=O)[C@@H]1[C@H]2[C@@H](CN1C(=O)[C@@H](NC(=O)OC(C)(C)C)C(C)(C)C)C2(C)C)C(=O)C(=O)NCC(=O)NCc1ccc(OC)cc1 (stereo partly drawn) | 1 to 100 |
| C=CCC(NC(=O)[C@@H]1[C@H]2[C@@H](CN1C(=O)[C@@H](NC(=O)OC(C)(C)C)C(C)(C)C)C2(C)C)C(=O)C(=O)NCC(=O)NCc1ccco1 (stereo partly drawn) | 101 to 1000 |
| C=CCNC(=O)C(=O)C(CCC)NC(=O)[C@@H]1CC(F)(F)CN1C(=O)[C@@H](NC(=O)OC(C)(C)C)C(C)(C)C (stereo partly drawn) | > 1000 |
| C=CCNC(=O)C(=O)C(CCC)NC(=O)C1(C)CC(C)(C)CN1C(=O)[C@H](NC(=O)OC(C)(C)C)C1CCCCC1 (stereo partly drawn) | > 1000 |
| C=CCNC(=O)C(=O)C(CCC)NC(=O)C1(C)CC(C)(C)CN1C(=O)[C@H](NC(=O)OC(C)(C)C)C(C)(C)C (stereo partly drawn) | > 1000 |
| CCCC(NC(=O)[C@@H]1[C@@H]2[C@H](CN1C(=O)[C@@H](NC(=O)OC(C)(C)C)C(C)(C)C)C2(C)C)C(=O)C(=O)NCc1ccco1 (stereo partly drawn) | 101 to 1000 |
| CCCC(NC(=O)[C@@H]1[C@@H]2[C@H](CN1C(=O)[C@@H](NC(=O)OC(C)(C)C)C(C)(C)C)C2(C)C)C(=O)C(=O)NCc1cccs1 (stereo partly drawn) | 101 to 1000 |
| CCCC(NC(=O)[C@@H]1[C@@H]2[C@H](CN1C(=O)[C@@H](NC(=O)OC(C)(C)C)C(C)(C)C)C2(C)C)C(=O)C(=O)NCc1cccnc1 (stereo partly drawn) | > 1000 |
| CCCC(NC(=O)[C@@H]1[C@@H]2[C@H](CN1C(=O)[C@@H](NC(=O)OC(C)(C)C)C(C)(C)C)C2(C)C)C(=O)C(=O)NCc1ccncc1 (stereo partly drawn) | > 1000 |
| CCCC(NC(=O)[C@@H]1[C@@H]2[C@H](CN1C(=O)[C@@H](NC(=O)OC(C)(C)C)C(C)(C)C)C2(C)C)C(=O)C(=O)NCc1ccccc1 (stereo partly drawn) | 101 to 1000 |
| CCCC(NC(=O)[C@@H]1[C@@H]2[C@H](CN1C(=O)[C@@H](NC(=O)OC(C)(C)C)C(C)(C)C)C2(C)C)C(=O)C(=O)NCC=C(C)C (stereo partly drawn) | 101 to 1000 |
